# Among all 310,000 compounds or so, about 14,000 (4.5%) showed an effect of 50% or more. Effects have a minus sign here. The list shows a part of the results.
# Target: human ether-à-go-go-related gene (hERG) potassium channel (human, UniProt Q12809)
# Test: primary screen, population patch clamp on CHO cells stably expressing hERG
# 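Also: peak tail current of the secondary pulse compared with the same well before compound.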
# human ether-à-go-go-related gene (hERG) potassium channel, sequence (Q12809 whole entry, looked up): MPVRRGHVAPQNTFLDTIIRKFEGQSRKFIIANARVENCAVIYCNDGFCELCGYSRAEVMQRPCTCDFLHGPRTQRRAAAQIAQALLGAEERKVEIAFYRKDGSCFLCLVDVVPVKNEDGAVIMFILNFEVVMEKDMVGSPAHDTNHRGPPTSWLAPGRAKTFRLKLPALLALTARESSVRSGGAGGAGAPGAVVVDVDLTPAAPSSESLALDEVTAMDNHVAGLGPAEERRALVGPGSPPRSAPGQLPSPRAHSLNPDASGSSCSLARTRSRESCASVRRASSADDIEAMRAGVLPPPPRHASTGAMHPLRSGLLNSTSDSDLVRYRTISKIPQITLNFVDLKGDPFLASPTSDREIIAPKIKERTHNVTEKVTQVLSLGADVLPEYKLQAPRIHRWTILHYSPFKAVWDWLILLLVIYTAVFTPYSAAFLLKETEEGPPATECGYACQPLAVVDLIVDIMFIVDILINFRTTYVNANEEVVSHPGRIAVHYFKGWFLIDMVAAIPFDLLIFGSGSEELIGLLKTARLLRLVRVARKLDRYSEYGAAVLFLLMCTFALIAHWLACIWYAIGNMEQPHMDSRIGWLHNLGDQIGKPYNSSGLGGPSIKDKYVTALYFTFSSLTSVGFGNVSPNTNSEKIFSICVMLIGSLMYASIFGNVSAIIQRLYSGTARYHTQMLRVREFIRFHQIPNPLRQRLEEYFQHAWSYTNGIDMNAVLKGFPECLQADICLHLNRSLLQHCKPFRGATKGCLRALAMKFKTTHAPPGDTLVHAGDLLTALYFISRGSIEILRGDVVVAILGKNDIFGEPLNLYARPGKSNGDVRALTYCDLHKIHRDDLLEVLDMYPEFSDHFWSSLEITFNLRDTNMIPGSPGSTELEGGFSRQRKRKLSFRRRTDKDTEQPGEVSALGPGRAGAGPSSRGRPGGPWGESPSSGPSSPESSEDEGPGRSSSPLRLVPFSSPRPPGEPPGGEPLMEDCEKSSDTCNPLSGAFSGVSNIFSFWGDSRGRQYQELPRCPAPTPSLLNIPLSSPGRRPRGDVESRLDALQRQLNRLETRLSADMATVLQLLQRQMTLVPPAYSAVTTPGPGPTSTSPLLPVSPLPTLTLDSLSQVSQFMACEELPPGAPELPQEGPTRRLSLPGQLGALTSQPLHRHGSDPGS
row,SMILES,"hERG current change (%, negative = inhibition) at 10uM"
1,Cc1ccc(S(=O)(=O)N(C)C)cc1NC(=O)CSc1nc2ccccc2c(=O)n1CC1CCCO1 (stereo not shown),-16.4%
2,Cc1ccc(C)c(N2CCN(C(=O)c3cc(S(=O)(=O)N4CCOCC4)ccc3F)CC2)c1,-10.4%
3,CC(=O)O[C@@H]1[C@@H](O)[C@@H](O)[C@H](Oc2c(-c3ccc(O)cc3)oc3c(CC=C(C)C)c(O)cc(O)c3c2=O)O[C@H]1C,16.4%
4,COc1ccccc1NC1=NC2(CCCC2)N=C(N)N1,2.84%
5,Cc1ccnc(NC(=O)CN2C(=O)c3ccccc3C2=O)c1,16.3%
6,CCCOc1ccc(/C(O)=C2/C(=O)C(=O)N(CCCOC)C2c2ccncc2)cc1 (stereo not shown),-53.1%
7,CCCn1c(CC)nc([N+](=O)[O-])c1Sc1ccc(F)cc1,-6.95%
8,CC(C)OP(=O)(OC(C)C)C(Nc1ccc([N+](=O)[O-])cc1)c1cccc([N+](=O)[O-])c1 (stereo not shown),-29.9%
9,CNC(=S)N(CCCO)Cc1cc2cc3c(cc2[nH]c1=O)OCO3,16.8%
10,COc1ccc(-n2nnc3c(SCC(=O)N4CCCc5ccccc54)ncnc32)cc1,13.6%
11,O=C(CN1C(=O)c2ccccc2S1(=O)=O)c1ccc(OC(F)F)cc1,-23%
12,CCCc1cc(=O)[nH]c(SCC(=O)N2CCN(S(=O)(=O)c3ccc(C)cc3)C2)n1,5.6%
13,COC(=O)C1=C(c2cc3ccccc3o2)C[C@@H]2CC[C@H]1N2C(=O)NCc1cccc2ccccc12,0.0943%
14,CSCCC(NS(=O)(=O)c1ccc2c(c1)OCCO2)C(=O)NCCc1ccccn1 (stereo not shown),22.4%
15,COc1ccc(C(=O)/C=C/Nc2cccc(O)c2)cc1,10.3%
16,C=C(C)COc1ccc(-c2ncncc2-c2ccc(Br)cc2)c(O)c1,18.5%
17,COCCCNC(=O)c1cc2cc(Br)ccc2oc1=O,26.2%
18,N#CCC(=O)N/N=C/c1cn(Cc2ccc3ccccc3c2)c2ccccc12,21.9%
19,O=C(CNS(=O)(=O)c1ccccc1)NCc1ccco1,16.1%
20,CC(C)(C)C(=O)OC/C(N)=N/OC(=O)c1ccc(Cl)cc1,-10.2%
21,Nc1ncn[nH]1,13.5%
22,CCOc1ccccc1NC(=O)CCn1ccnc1,8.77%
23,Cc1ccc(NC=C(S(=O)(=O)c2ccccc2)S(=O)(=O)c2ccccc2)c(C)c1,11.2%
24,CCn1cnc2c1c(=O)n(CC(=O)Nc1ccc(C(N)=O)cc1)c(=O)n2Cc1ccccc1,13.8%
25,COc1ccc(Cn2c(=S)[nH]c3ccsc3c2=O)cc1,11.5%
26,COc1ccc(-n2c(=O)[nH]c3cc(C(=O)NCCc4ccc(OC)c(OC)c4)ccc3c2=O)c(OC)c1,18.5%

row,SMILES,"hERG current change (%, negative = inhibition) at 10uM"
1,COc1ccc(C(=O)N/N=C/c2ccc(OC(=O)c3cccc4ccccc34)c([N+](=O)[O-])c2)cc1,3.57%
2,COc1ccccc1-c1c(C#N)c(N)nc2c1CCC2,0.295%
3,CC(Oc1ccc2ccc(=O)oc2c1)C(=O)c1ccccc1 (stereo not shown),-5.29%
4,CN1CCN2c3ncccc3Cc3ccccc3C2C1 (stereo not shown),-12.9%
5,O=C(Nc1ccccc1C(=O)O)c1cc(S(=O)(=O)Nc2cccc(F)c2)ccc1Cl,19.3%
6,CN(C)S(=O)(=O)c1cc(NC(=O)COC(=O)C2COc3ccccc3O2)ccc1Cl (stereo not shown),-2.11%
7,CC(C)CNC(=O)c1cccc(NC(=O)c2ccc3c(c2)C(=O)N(C)C3=O)c1,-42.9%
8,CC1CCCC2(C1)NC(=S)N(c1ccccc1)N2 (stereo not shown),8.73%
9,Cc1ccc(C)c(SCC(=O)OCC(=O)NCCNC(=O)COC(=O)CSc2cc(C)ccc2C)c1,13.6%
10,NC(=O)[C@@H]1CCOc2c(I)cc([N+](=O)[O-])cc2C(=O)N[C@@H](CO)C(=O)NCC(=O)N1,1.74%
11,COc1cc(CC(=O)O)c([N+](=O)[O-])cc1OC,2.02%
12,Cc1c(NC(=O)C(C)OC(=O)/C=C/c2ccccc2)c(=O)n(-c2ccccc2)n1C (stereo not shown),2.86%
13,O=c1[nH]c2cc3c(cc2cc1CN(CCO)S(=O)(=O)c1ccccc1Cl)OCCO3,-22.6%
14,COc1cc(OC)cc(C(=O)NCC(=O)Nc2ccc(-c3ccccc3)cc2)c1,1.55%
15,CCN(CC(=O)Nc1ccc(C)c(S(=O)(=O)N2CCOCC2)c1)Cc1ccccc1,-47.1%
16,O=C(Nc1ccc(NC(=O)c2ccc(Cl)cc2Cl)cc1)c1ccc2c(c1)OCO2,25%
17,CCC(=O)NC(=S)Nc1ccc(NC(=O)c2cc3ccccc3o2)c(OC)c1,30.7%
18,CCN1C(=O)[C@H]2[C@@H](c3ccc(C)cc3)N3C(=O)N(c4ccc(C)cc4)C(=O)[C@@]3(Cc3ccccc3)[C@H]2C1=O,13.2%
19,c1ccc(C(c2nnnn2Cc2cccs2)N2CCN(C3CCCC3)CC2)cc1 (stereo not shown),-46.3%
20,O=C(Nc1ccc(Cl)c(S(=O)(=O)N2CCOCC2)c1)c1n[nH]c(=O)c2ccccc12,10.6%
21,NC(=O)COc1ccccc1C1=NO[C@@](CC(=O)O)(C(=O)Nc2ccc3c(c2)OCCO3)C1,22.6%
22,Cc1ccc(N(C(=O)c2csnn2)C(C(=O)NC2CCCCC2)c2ccccn2)c(C)c1 (stereo not shown),-1.94%
23,Cc1ccc(NC(=O)CN2C(=O)N/C(=C\c3cccnc3)C2=O)cc1,-6.99%
24,CN1CCN(c2ccc(S(=O)(=O)N3CCOCC3)cc2)CC1,0.122%
25,CC(=O)Nc1nonc1C(=O)N1CCC(C)CC1,0.665%
26,COc1ccc2c(c1)C(NC(=O)C(F)(F)F)CC2=O (stereo not shown),2.14%

# Reference: paper PMC4336329 (PLoS ONE, 2015)
